According to PubChem BioAssay (NCI):
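Protocol summary: plate cells (96-well), add compound at 5 concentrations, incubate 48 h, interpolate endpoints linearly. GI50: concentration for 50% inhibition of growth. TGI: total growth inhibition.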

system: NCI-H322M lung; test: NCI tumour cell line growth inhibition, 48 h

| Compound | GI50 [µM] | TGI [µM] |
| --- | --- | --- |
| CSc1ccc(NC(=O)c2ccc3nn(/C(C#N)=C/c4ccccn4)nc3c2)cc1 | 2.06 | 4.77 |
| Cn1cc(-c2cc(N)n3nc(-c4c[nH]c5ccc(F)cc45)cc3n2)c2cccnc21 | 2.9 | 11 |
| COc1ccc2[nH]c(=O)c(CSc3ccccc3Nc3nccc(-c4ccc(C(F)(F)F)cc4)n3)cc2c1 | 13.8 | 26.7 |
| O=C1CCC(N2Cc3c(C#CCCCNC(=O)c4ccc(NC(=O)[C@@H]5NC6(CCCCC6)[C@@]6(C(=O)Nc7cc(Cl)ccc76)[C@H]5c5cccc(Cl)c5F)cc4)cccc3C2=O)C(=O)N1 (some centres not stated) | 51.6 | > 100 |
| COc1ccc(CCC2NCCc3c(Br)c4c(c(OC)c32)OCO4)cc1 (configuration not stated) | 6.86 | 40 |
| CCN1CCN(Cc2ccc(C(=O)Nc3cccc(Nc4ccc5c(OC)cccc5n4)c3)cc2C(F)(F)F)CC1 | 3.5 | 14.2 |
